Measured values as given in PubChem BioAssay AID2675 (National Center for Advancing Translational Sciences (NCATS), 2010).
Among all 280,000 compounds or so, about 100 (0.036%) were called active. The shares of active, inactive and inconclusive entries below differ from those in the screen. Calls come from the whole dose curve; as a rule, active = well fitted inhibition curve with a large enough effect in the signal ratio, with a control signal flat (not every such curve was filed as active); inconclusive = small, poorly fitted or top-dose-only effect, or effect the other way, or a change in a side signal; inactive = no such curve, though single readings can be large or run the other way; the % refers to the signal ratio. Where the call is inconclusive, the potency comes from a doubtful curve fit. A note “side channel” means that the fit belongs to a control or component signal, not to the main read-out.

The compounds below were run against Muscleblind-like protein 1 (Homo sapiens) (UniProt Q9NR56) (assay: qHTS Assay for Inhibitors of MBNL1-poly(CUG) RNA binding). Conditions: TR-FRET MBNL1-His/biotin-(CUG)12 binding, 665/545 ratio; activity change, negative = inhibition: at 57.5 µM (top of the series).
Summary of the method: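 Ratiometric TR-FRET (665 over 545 nm, excitation 340 nm) tracks disruption of MBNL1-His/biotin-(CUG)12 complex after 60 min at room temperature, with compounds at 92 nM to 58 uM final.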
% is set by controls: 0 for no effect and ±100 for the full control effect; potency is the fitted concentration of half-maximal effect; tags give direction and shape of the fitted curve or compound fluorescence and quenching.

Chain of UniProt Q9NR56 (Q9NR56 whole entry, looked up): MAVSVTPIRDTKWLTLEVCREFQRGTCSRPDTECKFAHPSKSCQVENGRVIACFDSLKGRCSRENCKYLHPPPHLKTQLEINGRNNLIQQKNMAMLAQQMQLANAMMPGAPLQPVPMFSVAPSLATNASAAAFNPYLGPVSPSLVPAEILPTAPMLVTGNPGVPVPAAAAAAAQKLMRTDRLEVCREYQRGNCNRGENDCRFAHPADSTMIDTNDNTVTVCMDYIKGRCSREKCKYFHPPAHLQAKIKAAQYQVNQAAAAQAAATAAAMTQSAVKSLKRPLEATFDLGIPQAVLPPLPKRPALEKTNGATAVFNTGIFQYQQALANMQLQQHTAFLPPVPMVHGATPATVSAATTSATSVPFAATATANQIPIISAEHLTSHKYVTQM

Row | SMILES | Potency | activity change, negative = inhibition
1 | O=C(Nc1c(Cl)ccc2nsnc12)c1ccco1 | inconclusive: 15.8 µM [quencher, side channel, partial curve] | –
2 | COc1ccccc1N1CCN(CCCNC(=O)Nc2ccccc2)CC1 | inconclusive: 3.55 µM [quencher, side channel, single point] | –
3 | CCOc1ccc2nc(NCCNC(=O)CC)c(C#N)cc2c1 | inconclusive: 20 µM [quencher, side channel, partial curve] | –
4 | CCCN1C2CCCC1CC(NC(=O)C1CCCCC1)C2 (stereo not drawn) | inconclusive: 0.708 µM [quencher, side channel, full curve, poor fit] | –
5 | Cc1cccc(C2Nc3ccccc3C(=O)N2NC(=O)c2ccc([N+](=O)[O-])cc2)n1 (stereo not drawn) | inconclusive: 17.8 µM [quencher, partial curve] | –
6 | Cc1nc(N/N=C/c2ccc(O)cc2O)cc(N2CCOCC2)n1 | inconclusive: 31.6 µM [quencher, side channel, single point] | –
7 | COC(=O)c1cc(CNC(=O)c2ccc(N3CCCC3)c([N+](=O)[O-])c2)ccc1OC | inconclusive: 15.8 µM [quencher, side channel, partial curve] | –
8 | COc1cc(/C=C2\C(=O)N(c3ccc(NC(C)=O)cc3)N=C2c2ccccc2)ccc1O | – | inactive: 5.4%
9 | Cc1cccn2c(=O)c3cc(C(=O)NCC4CCCO4)c(=N)n(Cc4ccc(F)cc4)c3nc12 (stereo not drawn) | inconclusive: 3.16 µM [quencher, full curve] | –
10 | COc1ccc(CNC(=O)COC(=O)CCCOc2ccc(Cl)cc2Cl)cc1 | inconclusive: 0.1 µM [fluorescent, side channel, full curve, poor fit] | –
11 | N#C/C(=C\c1ccco1)C(=O)Nn1cnnc1 | inconclusive: 25.1 µM [quencher, side channel, partial curve] | –
12 | O=[N+]([O-])c1ccc(COn2nnc3ccccc32)cc1 | inconclusive: 8.91 µM [quencher, side channel, partial curve] | –
13 | CCN(C(=O)COC(=O)/C=C/c1ccc(S(=O)(=O)N2CCc3ccccc32)cc1)C1CCS(=O)(=O)C1 (stereo not drawn) | inconclusive: 25.1 µM [quencher, single point] | –
14 | CC(C)CNC(=O)c1cc([N+](=O)[O-])ccc1N1CCOCC1 | inconclusive: 20 µM [quencher, side channel, single point] | –
15 | COc1ccc(N(C)C(=O)C2CCCN2S(=O)(=O)c2cccc3nsnc23)c(OC)c1 (stereo not drawn) | inconclusive: 22.4 µM [quencher, side channel, partial curve] | –
16 | Cc1ccc(NC(=O)c2cc(S(=O)(=O)N3CCCCC3)cs2)cc1 | inconclusive: 5.62 µM [quencher, side channel, single point] | –
17 | COc1ccc(/C=C2\SC(=S)N(CC(=O)NC3C=CS(=O)(=O)C3)C2=O)cc1 (stereo not drawn) | inconclusive: 3.55 µM [quencher, full curve] | –
18 | c1cc(Nc2ncnc3sc4c(c23)CCC4)ccn1 | inconclusive: 39.8 µM [fluorescent, single point] | –
19 | Cc1c(C(=O)N/N=C/c2ccncc2)no[n+]1[O-] | inconclusive: 25.1 µM [quencher, side channel, partial curve] | –

Row | SMILES | Potency | activity change, negative = inhibition
20 | O=c1c(Cl)c(NCCCO)cnn1-c1nc2ccccc2[nH]1 | inconclusive: 22.4 µM [quencher, side channel, partial curve] | –
21 | Cc1nccn1CC(O)Cn1c2ccccc2c2ccccc21 (stereo not drawn) | – | inactive: -1.63%
22 | CCOC(=O)c1ccc(N2C(=O)C=C(N3CCOCC3)C2=O)cc1 | inconclusive: 14.1 µM [quencher, side channel, partial curve] | –
23 | Cc1c(C(=O)NCCc2ccccc2)oc2ccc(S(=O)(=O)N3CCOCC3)cc12 | inconclusive: 0.501 µM [quencher, side channel, single point] | –
24 | Cc1ccccc1-n1nc(C(=O)O)c(C)c(C#N)c1=O | inconclusive: 12.6 µM [quencher, side channel, partial curve] | –
25 | CC(=O)c1c2c3c(cccc3n(C)c1=O)C(=O)c1ccccc1-2 | inconclusive: 1.41 µM [quencher, side channel, full curve] | –
26 | O=c1c2ccccc2ncn1-c1ccc(Cl)cc1[N+](=O)[O-] | inconclusive: 14.1 µM [quencher, side channel, partial curve] | –
27 | NC(=O)C1CCN(c2ncccc2[N+](=O)[O-])CC1 | inconclusive: 28.2 µM [quencher, single point] | –
28 | O=C(OCC(=O)N1CCN(c2ccccc2)CC1)c1ccc2ccccc2n1 | inconclusive: 15.8 µM [quencher, side channel, single point] | –
29 | COCc1c(C(=O)N/N=C(/C)c2ccc(OCc3ccccc3)cc2)nnn1-c1nonc1N | – | inactive: -3.65%
30 | CCNC(=S)N/N=C/c1cc(C)ccc1C | – | inactive: 7.25%
31 | CC(=O)C1=C(C)NC(SCC(=O)Nc2nc3ccccc3s2)=C(C#N)C1c1ccc(Cl)cc1 (stereo not drawn) | inconclusive: 39.8 µM [inhibitor, single point] | –
32 | Cc1c(Br)c([N+](=O)[O-])nn1CC(=O)NCc1cccnc1 | inconclusive: 15.8 µM [quencher, side channel, partial curve] | –
33 | Cn1c(SCC(=O)Nc2cccc(F)c2)nnc1-c1cccnc1 | – | inactive: 0.38%
34 | Cc1cc(C(F)(F)F)c2c(N)c(C(=O)NC3CC3)sc2n1 | inconclusive: 10 µM [quencher, side channel, partial curve] | –
35 | COc1cccc(N=Nc2c(N)[nH]n3c(=O)cc(-c4ccccc4)nc23)c1 | – | inactive: -3.45%
36 | O=C(O)c1cc([N+](=O)[O-])ccc1C(=O)Nc1cccc([N+](=O)[O-])c1 | inconclusive: 12.6 µM [quencher, side channel, partial curve] | –
37 | Cc1ccc(Cn2c(C)nc3ccc([N+](=O)[O-])cc3c2=O)cc1 | inconclusive: 3.16 µM [quencher, side channel, full curve] | –
38 | CCC(=O)N/N=C(\C)CC(=O)Nc1ccc2c(c1)OCCO2 | inconclusive: 20 µM [quencher, side channel, partial curve] | –
